Results from the antibiotic and cytotoxicity screens of Wong et al. (2023).
Some of the results follow.

Assays:
HSkMC = human skeletal muscle cells; assay: cytotoxicity call (relative viability < 0.9); settings: 10 µM
HepG2 = assay: cytotoxicity call (relative viability < 0.9); settings: 10 µM
S. aureus RN4220 = assay: growth inhibition call (relative growth <= 0.2); settings: 50 µM

| SMILES | cytotoxicity call (HSkMC) | cytotoxicity call (HepG2) | growth inhibition call (S. aureus RN4220) |
| --- | --- | --- | --- |
| CS(=O)(=O)OCCCCOS(C)(=O)=O | inactive | inactive | inactive |
| CCCCC/C=C/C=C1/C(=O)C=C[C@@H]1C/C=C\CCCC(=O)O | inactive | inactive | inactive |
| Cc1ccccc1S(=O)(=O)N1C[C@@H](O)COC[C@H]2O[C@H](CC(=O)N3CCN(C)CC3)CC[C@@H]21 | inactive | inactive | inactive |
| C[C@@H]1CN([C@H](C)CO)C(=O)c2cc(NC(=O)Nc3ccc4c(c3)OCO4)ccc2O[C@@H]1CN(C)S(=O)(=O)c1cn(C)cn1 | inactive | inactive | inactive |
| CC1(C)[C@H]2CC[C@@]1(C)c1nn(-c3ccccc3)c(C(F)(F)F)c12 | inactive | inactive | inactive |
| COc1cccc2c1C(=O)c1c(O)c3c(c(O)c1C2=O)C[C@@](O)(C(C)=O)C[C@@H]3O[C@H]1C[C@H](N)[C@H](O)[C@H](C)O1 | active | active | active |
| C[C@@H]1CN([C@H](C)CO)C(=O)Cc2cc(NC(=O)Cc3cn(C)c4ccccc34)ccc2O[C@H]1CN(C)Cc1ccc(Cl)c(Cl)c1 | active | inactive | inactive |
| C[C@@H]1CCCCO[C@H](CN(C)C(=O)CCC(F)(F)F)[C@H](C)CN([C@H](C)CO)C(=O)c2cc(NS(=O)(=O)c3cccs3)ccc2O1 | inactive | inactive | inactive |
| C[n+]1cccc(C(=O)[O-])c1 | inactive | inactive | inactive |
| C[C@@H]1CN([C@@H](C)CO)C(=O)c2cc(NS(=O)(=O)c3ccccc3)ccc2O[C@@H](C)CCCCO[C@H]1CN(C)C(=O)CCC(F)(F)F | inactive | inactive | inactive |
| NCC[C@H]1CC[C@H](NC(=O)Nc2ccc(F)cc2)[C@H](CO)O1 | inactive | inactive | inactive |
| CCCCCCCCCCCCCCCCCCCCCCCCC(=O)O | inactive | inactive | inactive |
| C[C@@H]1CCCCO[C@@H](CN(C)C(=O)CCC(F)(F)F)[C@@H](C)CN([C@H](C)CO)C(=O)c2cc(NS(=O)(=O)c3ccc(Cl)cc3)ccc2O1 | inactive | inactive | inactive |
| C[C@@H]1CN([C@@H](C)CO)C(=O)c2cc(NC(=O)Nc3ccccc3)ccc2O[C@@H](C)CCCCO[C@H]1CN(C)S(=O)(=O)c1cccc(F)c1 | inactive | inactive | inactive |
